# Reference: the supplement of paper PMC8728848
# Some of the results follow.
# B1: Ficolin B (Rattus norvegicus), P57756 (protein)
# chain: MVLGSAALFVLSLCVTELTLHAADTCPEVKVLDLEGSNKLTILQGCPGLPGALGPKGEAGAKGDRGESGLPGHPGKAGPTGPKGDRGEKGVRGEKGDTGPSQSCATGPRTCKELLTRGYFLTGWYTIYLPDCRPLTVLCDMDTDGGGWTVFQRRIDGTVDFFRDWTSYKQGFGSQLGEFWLGNDNIHALTTQGTNELRVDLADFDGNHDFAKYSSFQIQGEAEKYKLILGNFLGGGAGDSLTSQNNMLFSTKDQDNDQGSSNCAVRYHGAWWYSDCHTSNLNGLYLRGLHKSYANGVNWKSWKGYNYSYKVSEMKVRLI
# Key:
# Test in all cases: glycan array binding signal (z-score within array); higher = stronger binding
# Details in all cases: glycan notation: IUPAC condensed, linker removed
# [1] = target: Gal(b1-3)[Neu5Ac(a2-6)]GalNAc
# Summary of the method: (§1)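 Glycan array binding is given as a within-array Z-score, which can be read as non-binding when negative. The arrays, 3228 of them, came from the Consortium for Functional Glycomics database and were retained only where the protein sequence was available. Z-scores were averaged across arrays of the same protein sequence at different concentrations or buffers and across linkers.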
# [2] = target: Gal(b1-3)[Neu5Ac(a2-6)]GlcNAc(b1-6)Gal(b1-4)Glc
# Summary of the method: as §1
# [3] = target: Gal(b1-3)[Neu5Ac(b2-6)]GalNAc
# Summary of the method: as §1
# [4] = target: Gal(b1-4)GalNAc(a1-3)[Fuc(a1-2)]Gal(b1-4)GlcNAc
# Summary of the method: as §1
# [5] = target: Gal(b1-4)GalNAc(b1-3)[Fuc(a1-2)]Gal(b1-4)GlcNAc
# Summary of the method: as §1
# Gal(b1-4)Glc = target: Gal(b1-4)Glc
# Summary of the method: as §1
# Gal(b1-4)Glc6S = target: Gal(b1-4)Glc6S
# Summary of the method: as §1
# Gal(b1-4)GlcNAc = target: Gal(b1-4)GlcNAc
# Summary of the method: as §1
# [6] = target: Gal(b1-4)GlcNAc(a1-6)Gal(b1-4)GlcNAc
# Summary of the method: as §1
# [7] = target: Gal(b1-4)GlcNAc(b1-2)Man(a1-3)Man(b1-4)GlcNAc(b1-4)GlcNAc
# Summary of the method: as §1
# [8] = target: Gal(b1-4)GlcNAc(b1-2)Man(a1-3)[Gal(b1-4)GlcNAc(b1-2)Man(a1-6)]Man(b1-4)GlcNAc(b1-4)GlcNAc
# Summary of the method: as §1
# [9] = target: Gal(b1-4)GlcNAc(b1-2)Man(a1-3)[Gal(b1-4)GlcNAc(b1-2)Man(a1-6)]Man(b1-4)GlcNAc(b1-4)[Fuc(a1-6)]GlcNAc
# Summary of the method: as §1
# [10] = target: Gal(b1-4)GlcNAc(b1-2)Man(a1-3)[Man(a1-6)]Man(b1-4)GlcNAc(b1-4)GlcNAc
# Summary of the method: as §1
# [11] = target: Gal(b1-4)GlcNAc(b1-2)Man(a1-6)Man(b1-4)GlcNAc(b1-4)GlcNAc
# Summary of the method: as §1
# [12] = target: Gal(b1-4)GlcNAc(b1-2)Man(a1-6)[Man(a1-3)]Man(b1-4)GlcNAc(b1-4)GlcNAc
# Summary of the method: as §1
# [13] = target: Gal(b1-4)GlcNAc(b1-2)[Gal(b1-4)GlcNAc(b1-4)]Man(a1-3)[Gal(b1-4)GlcNAc(b1-2)Man(a1-6)]Man(b1-4)GlcNAc(b1-4)GlcNAc
# Summary of the method: as §1
# [14] = target: Gal(b1-4)GlcNAc(b1-3)Gal(b1-3)GlcNAc
# Summary of the method: as §1
# [15] = target: Gal(b1-4)GlcNAc(b1-3)Gal(b1-4)Glc
# Summary of the method: as §1
# [16] = target: Gal(b1-4)GlcNAc(b1-3)Gal(b1-4)GlcNAc
# Summary of the method: as §1
# [17] = target: Gal(b1-4)GlcNAc(b1-3)Gal(b1-4)GlcNAc(b1-3)Gal(b1-4)GlcNAc
# Summary of the method: as §1
# [18] = target: Gal(b1-4)GlcNAc(b1-3)Gal(b1-4)[Fuc(a1-3)]GlcNAc(b1-3)Gal(b1-4)[Fuc(a1-3)]GlcNAc
# Summary of the method: as §1
# [19] = target: Gal(b1-4)GlcNAc(b1-3)GalNAc
# Summary of the method: as §1
# [20] = target: Gal(b1-4)GlcNAc(b1-3)[Gal(b1-4)GlcNAc(b1-6)]Gal(b1-4)GlcNAc
# Summary of the method: as §1
# [21] = target: Gal(b1-4)GlcNAc(b1-3)[GlcNAc(b1-6)]Gal(b1-4)GlcNAc
# Summary of the method: as §1
# [22] = target: Gal(b1-4)GlcNAc(b1-6)Gal(b1-4)GlcNAc
# Summary of the method: as §1
# [23] = target: Gal(b1-4)GlcNAc(b1-6)Gal(b1-4)GlcNAc(b1-6)GalNAc
# Summary of the method: as §1
# [24] = target: Gal(b1-4)GlcNAc(b1-6)GalNAc
# Summary of the method: as §1
# [25] = target: Gal(b1-4)GlcNAc(b1-6)[Gal(b1-3)]GalNAc
# Summary of the method: as §1
# Gal3S(b1-3)GalNAc = target: Gal3S(b1-3)GalNAc
# Summary of the method: as §1
# Gal3S(b1-3)GlcNAc = target: Gal3S(b1-3)GlcNAc
# Summary of the method: as §1
# [26] = target: Gal3S(b1-3)[Fuc(a1-4)]GlcNAc
# Summary of the method: as §1
# Gal3S(b1-4)Glc = target: Gal3S(b1-4)Glc
# Summary of the method: as §1
# Gal3S(b1-4)Glc6S = target: Gal3S(b1-4)Glc6S
# Summary of the method: as §1
# Gal3S(b1-4)GlcNAc = target: Gal3S(b1-4)GlcNAc
# Summary of the method: as §1
# Gal3S(b1-4)GlcNAc6S = target: Gal3S(b1-4)GlcNAc6S
# Summary of the method: as §1
# [27] = target: Gal3S(b1-4)[Fuc(a1-3)]Glc
# Summary of the method: as §1
# Gal3S4S(b1-4)GlcNAc = target: Gal3S4S(b1-4)GlcNAc
# Summary of the method: as §1
# Gal3S6S(b1-4)GlcNAc = target: Gal3S6S(b1-4)GlcNAc
# Summary of the method: as §1
binder,measurement,setting,value
B1,glycan array binding signal (z-score),[1],-0.174
same,glycan array binding signal (z-score),[2],-0.138
same,glycan array binding signal (z-score),[3],-0.179
same,glycan array binding signal (z-score),[4],-0.19
same,glycan array binding signal (z-score),[5],-0.2
same,glycan array binding signal (z-score),Gal(b1-4)Glc,-0.191
same,glycan array binding signal (z-score),Gal(b1-4)Glc6S,-0.175
same,glycan array binding signal (z-score),Gal(b1-4)GlcNAc,-0.212
same,glycan array binding signal (z-score),[6],-0.189
same,glycan array binding signal (z-score),[7],-0.198
same,glycan array binding signal (z-score),[8],-0.223
same,glycan array binding signal (z-score),[9],-0.209
same,glycan array binding signal (z-score),[10],-0.056
same,glycan array binding signal (z-score),[11],-0.21
same,glycan array binding signal (z-score),[12],-0.239
same,glycan array binding signal (z-score),[13],-0.185
same,glycan array binding signal (z-score),[14],-0.014
same,glycan array binding signal (z-score),[15],-0.213
same,glycan array binding signal (z-score),[16],-0.192
same,glycan array binding signal (z-score),[17],-0.252
same,glycan array binding signal (z-score),[18],0.105
same,glycan array binding signal (z-score),[19],-0.18
same,glycan array binding signal (z-score),[20],1.56
same,glycan array binding signal (z-score),[21],-0.121
same,glycan array binding signal (z-score),[22],-0.246
same,glycan array binding signal (z-score),[23],-0.222
same,glycan array binding signal (z-score),[24],-0.085
same,glycan array binding signal (z-score),[25],-0.108
same,glycan array binding signal (z-score),Gal3S(b1-3)GalNAc,-0.196
same,glycan array binding signal (z-score),Gal3S(b1-3)GlcNAc,-0.196
same,glycan array binding signal (z-score),[26],-0.233
same,glycan array binding signal (z-score),Gal3S(b1-4)Glc,-0.232
same,glycan array binding signal (z-score),Gal3S(b1-4)Glc6S,-0.122
same,glycan array binding signal (z-score),Gal3S(b1-4)GlcNAc,-0.185
same,glycan array binding signal (z-score),Gal3S(b1-4)GlcNAc6S,-0.2
same,glycan array binding signal (z-score),[27],0.034
same,glycan array binding signal (z-score),Gal3S4S(b1-4)GlcNAc,-0.205
same,glycan array binding signal (z-score),Gal3S6S(b1-4)GlcNAc,-0.23
